# Results from PMC11995724, “Antibiotic target discovery by integrated phenotypic and activity-based profiling of electrophilic fragments” (Cell chemical biology, 2025).
# Among all 3,200 compounds or so, about 75 (2%) showed an effect of 50% or more. Some of the results follow.
# System: T1, S. aureus MSSA476
# T1 construct: MSSA476
# Parameters: species or system S. aureus MSSA476 (TSB) or V. cholerae SAD30 (LB); 384-well bacterial growth screen at 25 uM, OD600 relative to DMSO control
# Settings: relative growth, OD600, TSB; 25 µM; inhibitor
row,Compound,% of control remaining
1,"O=C(CCl)NCC1(c2ccc3c(c2)OCCO3)CCCC1 [4-I11, 2-chloro-N-{[1-(2,3-dihydro-1,4-benzodioxin-6-yl)cyclopentyl]methyl}acetamide]",92.2344%
2,"C=CC(=O)NCc1ccsc1S(N)(=O)=O [2-J15, N-[(2-sulfamoylthiophen-3-yl)methyl]prop-2-enamide]",115.231%
3,"C=CC(=O)Nc1ccccc1C1CC1(F)F (centres unmarked) [1-M15, N-[2-(2,2-difluorocyclopropyl)phenyl]prop-2-enamide]",110.066%
4,"N#CC(=Cc1ccsc1)C(=O)Nc1cccc2ccccc12 [9-M09, 2-cyano-N-(naphthalen-1-yl)-3-(thiophen-3-yl)prop-2-enamide]",97.0787%
5,"COc1ccc(NC(=O)CCl)cc1S(=O)(=O)N(C)C [4-E15, 2-chloro-N-[3-(dimethylsulfamoyl)-4-methoxyphenyl]acetamide]",109.385%
6,"Cc1ccc(C(=O)c2ccccc2)c(NC(=O)CCl)c1 [4-B19, N-(2-benzoyl-5-methylphenyl)-2-chloroacetamide]",107.48%
7,"CC(Cl)C(=O)N[C@H]1C[C@H](C)S(=O)(=O)c2sccc21 (stereo partly drawn) [6-B22, 2-chloro-N-[(2S,4S)-2-methyl-1,1-dioxo-2H,3H,4H-1lambda6-thieno[2,3-b]thiopyran-4-yl]propanamide]",105.171%
8,"C=CC(=O)Nc1ccc2c(c1)N(C)CC2 [1-G13, N-(1-methyl-2,3-dihydro-1H-indol-6-yl)prop-2-enamide]",105.495%
9,"CC(Cl)C(=O)NCCN1C(=O)CSC1=O (centres unmarked) [5-M03, 2-chloro-N-[2-(2,4-dioxo-1,3-thiazolidin-3-yl)ethyl]propanamide]",94.7177%
10,"CC(Cl)C(=O)N1CCC(c2nc(N(C)C)no2)CC1 (centres unmarked) [6-F05, 2-chloro-1-{4-[3-(dimethylamino)-1,2,4-oxadiazol-5-yl]piperidin-1-yl}propan-1-one]",116.098%
11,"C=CC(=O)NCC1CCCN1S(=O)(=O)CC (centres unmarked) [3-F19, N-{[1-(ethanesulfonyl)pyrrolidin-2-yl]methyl}prop-2-enamide]",99.6082%
12,"CC(Cl)C(=O)NCCc1ccnn1C (centres unmarked) [7-I21, 2-chloro-N-[2-(1-methyl-1H-pyrazol-5-yl)ethyl]propanamide]",97.9592%
13,"Cc1c(Cl)cccc1NC(=O)C(C#N)=Cc1cccs1 [9-B05, N-(3-chloro-2-methylphenyl)-2-cyano-3-(thiophen-2-yl)prop-2-enamide]",105.768%
14,"CC(c1cccc([N+](=O)[O-])c1)N(C)C(=O)CCl (centres unmarked) [6-G06, 2-chloro-N-methyl-N-[1-(3-nitrophenyl)ethyl]acetamide]",70.6829%
15,"Cc1cc(C)c(C=C(C#N)C(=O)Nc2nccs2)cc1C [8-P21, 2-cyano-N-(1,3-thiazol-2-yl)-3-(2,4,5-trimethylphenyl)prop-2-enamide]",108.216%
16,"O=C(CCl)c1sccc1Cl [10-K11, 2-chloro-1-(3-chlorothiophen-2-yl)ethan-1-one]",10.3125%
17,"C=CC(=O)NC1CCCN(C(=O)CCC(F)(F)F)C1 (centres unmarked) [1-B03, N-[1-(4,4,4-trifluorobutanoyl)piperidin-3-yl]prop-2-enamide]",102.681%
18,"COc1ccc(C=C(C#N)C(=O)Nc2cccc3c2C(=O)NC3=O)cc1 [8-F13, 2-cyano-N-(1,3-dioxo-2,3-dihydro-1H-isoindol-4-yl)-3-(4-methoxyphenyl)prop-2-enamide]",118.838%
19,"N#CC(=Cc1cc2ccccc2o1)C(=O)NCc1ccco1 [9-O08, 3-(1-benzofuran-2-yl)-2-cyano-N-[(furan-2-yl)methyl]prop-2-enamide]",115.056%
20,"O=C(CCl)NC1CCCOc2c(F)cccc21 (centres unmarked) [7-B14, 2-chloro-N-(9-fluoro-2,3,4,5-tetrahydro-1-benzoxepin-5-yl)acetamide]",82.2606%
21,"Cc1ccc(NC(=O)C(C#N)=Cc2ccc(OC(F)F)cc2)c(C)c1 [9-G19, 2-cyano-3-[4-(difluoromethoxy)phenyl]-N-(2,4-dimethylphenyl)prop-2-enamide]",65.618%
22,"C=CC(=O)NCCN1C(=O)COc2ccccc21 [2-P07, N-[2-(3-oxo-3,4-dihydro-2H-1,4-benzoxazin-4-yl)ethyl]prop-2-enamide]",93.2985%
23,"CN1C(=C(C#N)C(=O)CCl)N(C)c2ccccc21 [10-P18, 4-chloro-2-(1,3-dimethyl-2,3-dihydro-1H-1,3-benzodiazol-2-ylidene)-3-oxobutanenitrile]",103.75%
24,"C=CC(=O)NCCC(=O)NC1CCSc2ccc(F)cc21 (centres unmarked) [3-D08, N-{2-[(6-fluoro-3,4-dihydro-2H-1-benzothiopyran-4-yl)carbamoyl]ethyl}prop-2-enamide]",94.0357%
25,"C=CC(=O)NC1(Cn2cccn2)CC(F)(F)C1 [2-J17, N-{3,3-difluoro-1-[(1H-pyrazol-1-yl)methyl]cyclobutyl}prop-2-enamide]",103.394%
26,"CC1CCN(C(=O)CCl)c2cc(C(F)(F)F)ccc2S1 (centres unmarked) [5-J07, 2-chloro-1-[2-methyl-7-(trifluoromethyl)-2,3,4,5-tetrahydro-1,5-benzothiazepin-5-yl]ethan-1-one]",106.011%
27,"O=C(CCl)Nc1ccc(Cl)c(C(F)(F)F)c1 [4-I09, 2-chloro-N-[4-chloro-3-(trifluoromethyl)phenyl]acetamide]",81.5626%
28,"CCc1cccc(NC(=O)CCl)c1 [4-F04, 2-chloro-N-(3-ethylphenyl)acetamide]",88.8042%
29,"C=CC(=O)N1CCC(C(=O)NC(C)(c2noc(C)n2)C2CC2)CC1 (centres unmarked) [2-B10, N-[1-cyclopropyl-1-(5-methyl-1,2,4-oxadiazol-3-yl)ethyl]-1-(prop-2-enoyl)piperidine-4-carboxamide]",107.92%
